PubChem BioAssay AID179 (DTP/NCI, 2004)
Some entries of the source have several records that differ or are many. Only these are listed. An entry can have further records. Results that share an entry are repeats in other runs, samples, wells, individuals or studies. Marks in square brackets tell the records apart. A, B and so on number the origins entry by entry.

System: CEM cells HIV-1 protection, formazan growth assay
Test: NCI AIDS Antiviral Assay
Conditions: for IC50: measured here: growth of uninfected CEM cells
Summary of the method: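 Screen of anti-HIV-1 activity in human CEM cells using a formazan-based growth measurement at five drug concentrations. Hits with 50% or greater protection were repeated, and confirmation required reproducible complete protection.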

Row | SMILES | IC50 | EC50
1 | CC(=O)Oc1ccc2c(c1)Oc1cc(OC(C)=O)ccc1C21OC(=O)c2ccccc21 | 10.5 µM [sample A] and > 200 µM [sample B] | 
2 | CCCCCCCCCCCCCCCCOP(=O)(O)OP(=O)(O)OCC1OC(n2ccc(N)nc2=O)C(O)C1O (stereo not drawn) | 195 µM [sample A] and 603 nM [sample B] | 
3 | NC1(C(=O)O)CSSC1 |  | 6.76 µM [sample A] and > 1.51 mM [sample B]
